Reference: the supplement of paper PMC4967469

Legend:
Assay in all cases: Viability of human cancer cell lines after 72 h of drug (GDSC screen)
Temsirolimus = compound: CO[C@H]1C[C@@H]2CC[C@@H](C)[C@@](O)(O2)C(=O)C(=O)N2CCCC[C@H]2C(=O)O[C@H]([C@H](C)C[C@@H]2CC[C@@H](OC(=O)C(C)(CO)CO)[C@H](OC)C2)CC(=O)[C@H](C)/C=C(\C)[C@@H](O)[C@@H](OC)C(=O)[C@H](C)C[C@H](C)/C=C/C=C/C=C/1C [Temsirolimus]; conditions: top dose 0.2 µM
Experimental: (§1)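 Human cancer cell lines in 384-well plates, medium with 10% serum, drug for 72 h over a 256-fold dose range (nine 2-fold or five 4-fold steps up to the top dose). Adherent lines were fixed and stained with the nucleic acid dye Syto60, suspension lines read with resazurin; signal relative to control wells, capped at 0 and 100%. One two-parameter sigmoid per drug and line, fitted in a mixed model over all curves with the slope shared within a line.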

XMD15-27 = compound: C=CC(=O)Nc1ccc(C(=O)c2sc(Nc3ccc(N4CCN(C)CC4)cc3OC)nc2N)cc1 [XMD15-27]; conditions: top dose 10.24 µM; top dose inferred
Experimental: as §1

SL 0101-1 = compound: CC(=O)O[C@@H]1[C@@H](OC(C)=O)[C@@H](O)[C@H](Oc2c(-c3ccc(O)cc3)oc3cc(O)cc(O)c3c2=O)O[C@H]1C [SL 0101-1]; conditions: top dose 10 µM; top dose inferred
Experimental: as §1

Cell Line | AUC (Temsirolimus) | IC50 (Temsirolimus) [µM] | AUC (XMD15-27) | IC50 (XMD15-27) [µM] | AUC (SL 0101-1) | IC50 (SL 0101-1) [µM]
GAK (melanoma, adherent) | 0.941 | > 0.2 | 0.989 | > 10.2 | 0.989 | > 10
PANC-03-27 (pancreas, adherent) | 0.952 | > 0.2 | 0.989 | > 10.2 | 0.979 | > 10
H2869 (mesothelioma, adherent) | 0.887 | > 0.2 | 0.938 | > 10.2 | 0.984 | > 10
GB-1 (glioma, adherent) | 0.864 | > 0.2 | 0.979 | > 10.2 | 0.972 | > 10
SK-MEL-1 (melanoma, suspension) | 0.985 | > 0.2 | 0.993 | > 10.2 | 0.99 | > 10
SK-N-SH (neuroblastoma, adherent) | 0.899 | > 0.2 | 0.983 | > 10.2 | 0.987 | > 10
SBC-1 (small cell lung carcinoma, suspension) | 0.915 | > 0.2 | 0.988 | > 10.2 | 0.989 | > 10
MSTO-211H (mesothelioma, adherent) | 0.666 | 0.0343 | 0.991 | > 10.2 | 0.975 | > 10
KYSE-150 (oesophagus, adherent) | 0.968 | > 0.2 | 0.981 | > 10.2 | 0.988 | > 10
NCI-H28 (mesothelioma, adherent) | 0.815 | 0.156 | 0.973 | > 10.2 | 0.974 | > 10
KP-3 (pancreas, adherent) | 0.935 | > 0.2 | 0.972 | > 10.2 | 0.984 | > 10
H2731 (mesothelioma, adherent) | 0.826 | 0.145 | 0.806 | 6.15 | 0.984 | > 10
OSC-20 (head and neck, adherent) | 0.862 | > 0.2 | 0.975 | > 10.2 | 0.957 | > 10
SW13 (adrenal gland, adherent) | 0.804 | 0.101 | 0.988 | > 10.2 | 0.949 | > 10
NCI-H64 (small cell lung carcinoma, suspension) | 0.98 | > 0.2 | 0.996 | > 10.2 | 0.995 | > 10
NOMO-1 (acute myeloid leukaemia, suspension) | 0.709 | 0.0531 | 0.981 | > 10.2 | 0.916 | > 10
YAPC (pancreas, adherent) | 0.963 | > 0.2 | 0.982 | > 10.2 | 0.982 | > 10
AU565 (breast, adherent) | 0.739 | 0.0662 | 0.976 | > 10.2 | 0.984 | > 10
MEL-JUSO (melanoma, adherent) | 0.623 | 0.0284 | 0.956 | > 10.2 | 0.984 | > 10

Cell Line | AUC (Temsirolimus) | IC50 (Temsirolimus) [µM] | AUC (XMD15-27) | IC50 (XMD15-27) [µM] | AUC (SL 0101-1) | IC50 (SL 0101-1) [µM]
ECC10 (stomach, suspension) | 0.914 | > 0.2 | 0.917 | > 10.2 | 0.94 | > 10
OVCAR-8 (ovary, adherent) | 0.749 | 0.0588 | 0.99 | > 10.2 | 0.96 | > 10
KMRC-20 (kidney, adherent) | 0.749 | 0.066 | 0.989 | > 10.2 | 0.958 | > 10
U-87-MG (glioma, adherent) | 0.914 | > 0.2 | 0.98 | > 10.2 | 0.967 | > 10
Daudi (Burkitt lymphoma, suspension) | 0.968 | > 0.2 | 0.991 | > 10.2 | 0.987 | > 10
SNU-81 (large intestine, adherent) | 0.519 | 0.0143 | 0.981 | > 10.2 | 0.982 | > 10
SU-DHL-6 (B-cell lymphoma, suspension) | 0.297 | 0.00399 | 0.927 | 9.03 | 0.952 | > 10
WSU-NHL (lymphoid neoplasm, suspension) | 0.341 | 0.00479 | 0.99 | > 10.2 | 0.99 | > 10
NCI-H1437 (lung adenocarcinoma, adherent) | 0.649 | 0.0328 | 0.962 | > 10.2 | 0.985 | > 10
ME-1 (acute myeloid leukaemia, suspension) | 0.945 | > 0.2 | 0.989 | > 10.2 | 0.971 | > 10
HuP-T3 (pancreas, adherent) | 0.848 | > 0.2 | 0.981 | > 10.2 | 0.983 | > 10
C-33-A (cervix, adherent) | 0.675 | 0.0385 | 0.979 | > 10.2 | 0.982 | > 10
WM1552C (melanoma, adherent) | 0.853 | 0.158 | 0.971 | > 10.2 | 0.969 | > 10
NCI-H1688 (small cell lung carcinoma, adherent) | 0.828 | 0.14 | 0.979 | > 10.2 | 0.986 | > 10
NCI-H209 (small cell lung carcinoma, suspension) | 0.765 | 0.0785 | 0.937 | > 10.2 | 0.949 | > 10
KNS-81-FD (glioma, adherent) | 0.701 | 0.057 | 0.981 | > 10.2 | 0.976 | > 10
CS1 (bone, adherent) | 0.667 | 0.0388 | 0.945 | > 10.2 | 0.984 | > 10
MS-1 (small cell lung carcinoma, suspension) | 0.957 | > 0.2 | 0.988 | > 10.2 | 0.99 | > 10
MDST8 (large intestine, adherent) | 0.269 | 0.00276 | 0.988 | > 10.2 | 0.986 | > 10

Cell Line | AUC (Temsirolimus) | IC50 (Temsirolimus) [µM] | AUC (XMD15-27) | IC50 (XMD15-27) [µM] | AUC (SL 0101-1) | IC50 (SL 0101-1) [µM]
SK-N-AS (neuroblastoma, adherent) | 0.759 | 0.08 | 0.934 | > 10.2 | 0.976 | > 10
HAL-01 (lymphoblastic leukaemia, suspension) | 0.731 | 0.0517 | 0.985 | > 10.2 | 0.966 | > 10
LCLC-97TM1 (large cell lung carcinoma, adherent) | 0.909 | > 0.2 | 0.813 | 6.21 | 0.98 | > 10
HA7-RCC (kidney, adherent) | 0.779 | 0.0905 | 0.985 | > 10.2 | 0.985 | > 10
NCC021 (kidney, adherent) | 0.835 | 0.164 | 0.959 | > 10.2 | 0.976 | > 10
EMC-BAC-2 (lung adenocarcinoma, adherent) | 0.549 | 0.0174 | 0.957 | > 10.2 | 0.982 | > 10
HCC1143 (breast, adherent) | 0.864 | > 0.2 | 0.98 | > 10.2 | 0.976 | > 10
SBC-5 (small cell lung carcinoma, adherent) | 0.779 | 0.0664 | 0.993 | > 10.2 | 0.993 | > 10
RT4 (bladder, adherent) | 0.925 | > 0.2 | 0.986 | > 10.2 | 0.977 | > 10
JiyoyeP-2003 (Burkitt lymphoma, suspension) | 0.766 | 0.0654 | 0.99 | > 10.2 | 0.984 | > 10
MFH-ino (soft tissue, adherent) | 0.341 | 0.00417 | 0.983 | > 10.2 | 0.983 | > 10
LP-1 (myeloma, suspension) | 0.988 | > 0.2 | 0.993 | > 10.2 | 0.989 | > 10
CL-11 (large intestine, adherent) | 0.969 | > 0.2 | 0.986 | > 10.2 | 0.981 | > 10
KLE (endometrium, adherent) | 0.906 | > 0.2 | 0.976 | > 10.2 | 0.976 | > 10
DMS-114 (small cell lung carcinoma, adherent) | 0.705 | 0.0521 | 0.981 | > 10.2 | 0.98 | > 10
Hs746T (stomach, adherent) | 0.844 | > 0.2 | 0.981 | > 10.2 | 0.98 | > 10
NCI-H510A (small cell lung carcinoma, semi-adherent) | 0.92 | > 0.2 | 0.988 | > 10.2 | 0.987 | > 10
BV-173 (chronic myeloid leukaemia, suspension) | 0.512 | 0.0134 | 0.924 | > 10.2 | 0.939 | > 10
SIMA (neuroblastoma, adherent) | 0.94 | > 0.2 | 0.978 | > 10.2 | 0.985 | > 10

By IC50 is meant the dose at which the fit gives 50% viability; a limit (>, <) means that the fit lies beyond the doses tested. AUC, from the same fit, is the share of area under the viability curve across the 256-fold dose range; it is 1 without any effect and falls as sensitivity rises. For part of these data: Any top dose called inferred was calculated from the reported fits.
